Data from the supplement of paper PMC12632987.
The full ranking holds about 1,800 sequences; the median of “median log2 fold change of GCK-ALFA target abundance (FLAG IP / Myc IP barcode read proportion)” is about 0.14, and the lowest 2% start at about -0.84. Some of the results follow.

T1: TRAF2, Q12933
T1 chain: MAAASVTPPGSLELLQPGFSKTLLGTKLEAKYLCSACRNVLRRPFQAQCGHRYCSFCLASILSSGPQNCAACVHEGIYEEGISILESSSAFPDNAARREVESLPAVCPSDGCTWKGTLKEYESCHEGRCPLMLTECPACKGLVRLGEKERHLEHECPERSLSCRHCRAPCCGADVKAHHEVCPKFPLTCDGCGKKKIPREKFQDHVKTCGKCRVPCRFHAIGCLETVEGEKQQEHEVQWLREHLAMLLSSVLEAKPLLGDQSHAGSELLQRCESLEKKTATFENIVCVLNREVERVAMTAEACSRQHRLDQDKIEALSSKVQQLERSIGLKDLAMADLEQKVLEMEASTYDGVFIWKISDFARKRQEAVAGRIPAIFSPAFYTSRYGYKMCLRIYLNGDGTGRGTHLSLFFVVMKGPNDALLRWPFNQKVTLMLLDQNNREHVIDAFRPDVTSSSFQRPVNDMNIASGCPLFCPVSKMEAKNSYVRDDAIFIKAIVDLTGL

B1: traf2_out_6_166_2471 (protein)
chain: EEELLERIKEIAKELGKYDPEIVIEAFERLAAERDDATATLARQLASGVRQAQKAGLDVTTIITAFAEGQLALGVPVETILALFEEVLKIAKELEEEKKK
B2: traf2_out_20_3_2095 (protein)
chain: EELEKELEKALKEAAKLIKKAIALADPETAARLEALLKRLKAAEKLPLEDRLVALSAVRRELLALAEEARAAGREELAKLLEEAAEEVNRAMNLAYKIIE
B3: traf2_out_19_16_1978 (protein)
chain: KKEELEKLKKELEKIKKEVKKLEKEFEENKDKLTREELSDLLVKVSELKRKAQEILQKLEELKDYDPEEVEKLKKEAEKVIEEAQKLANKIVDRYEELLK
B4: traf2_out_13_95_1106 (protein)
chain: SAETAEKIMEIADEMLDKVEELLEKLLEIAKKKGKLEEEIQEALHLARYRSINEAIHLLKELAKKYPEFKEELEETIEKIEELIREAGRKVAEILKEEKE
B5: traf2_out_13_95_1191 (protein)
chain: EEEKRKKYAERTNAIADELLDHADAKIAELEAATGDPELGAELRRVLDRGGVSALIHRIRELAKEDPAYREAYEAAAAELEAKRREAGRRVAEAEKEIEA
B6: traf2_out_17_162_1488 (protein)
chain: SELKARLEELKKRLEELEKKLKELEEKLKNLEKLSKEELTDLLVEVSELKREALELAEELKKLQKETGDPELKTLIERAEKLAEEAQRIANKIYKELEKK
B7: traf2_out_11_155_703 (protein)
chain: EEKKKLNNELVDKMIEIEEKLKEEVLKIIEAAAAAHPEHAAELAAVVEESKPFSGTDFARLAARKFEELGLEEEAAKVKALLEKAQKEKNKIYKEIEEKI
B8: traf2_out_11_155_694 (protein)
chain: EKKKELNNELVDKNMEIADKAKEELAKIAAAAAAAHPEHAAAIAALLAESSRFSATTFAGQLAALFRELGLEEYAAEVEKLREKAQKERNKVYKEIEAKI
B9: traf2_out_17_178_1675 (protein)
chain: DKEKWRAKISELTDKLIDLTEKTGRELLALAEKEGALSPEELALLRAALRSGSANTFLAVAKRIAPKLPSAEEAQALLDEFEKEKRKLSKEIAEAYEKYE
B10: traf2_out_20_3_2129 (protein)
chain: KELEEEAKKELEKAIKLLKEAAKLASPEKAKELEELAKELKESEKLSPSDRLVKVSEIRRKVRAMALEAKAAGDEKLAAVLEKAAEALNRLAQLLYKIIQ
B11: traf2_out_17_162_1588 (protein)
chain: GELEKKKEELEKKLEELEKKKKELEKKLEKIDELSKEELTDLLVEASEAKREALELLEEIKSLKDLLPEEEYEKLSKKAEELAEKFQKIANKFYKKLEEK
B12: traf2_out_16_104_1419 (protein)
chain: SAEDQAKFDALIKEAEEIAEELGRLANELYQKLLTASPEEKEKLSDALVKASEARREALELAEEIEKAKAAGGDLKEAEAKLEKLKAKAEEVKKEAEKLF
B13: traf2_out_19_164_1962 (protein)
chain: MSPEEIRREELERAEELAPRSRAENLVATVLELSAAGRDEEALATLRAALDHLARILEKEEFLRTLDIAIALVDERAAELPPELAAAVRALLEEARARAR
B14: traf2_out_11_169_830 (protein)
chain: EEAEKNRKINDFALELEEKAKEEFKKFVLELAKEEGLDVEEIKKIFEENKNKSLSAIAAAVIEYFKSKGKEEAAEKVLKKYEELKEKINKEATEKIKELE
B15: traf2_out_11_155_680 (protein)
chain: AKKQELNNELVDKTTAINDKLKAEVTAIAEKAAAAKPEKAAEIKAVLEASKPFSGRTFAGNMAATFKKLGLEEAAKEVEELLEKAQKEMNKVVKEIEAKL
B16: traf2_out_11_155_761 (protein)
chain: SEKLALEQEFTDKVTELADKIEAKIEEIIKKLEKEDPEVAKKVRELLEKHRDASARSKALLAAELLKKEGYEELAKELLDEVEKAQKEANKLAKEMEEKK
B17: traf2_out_11_169_806 (protein)
chain: KEAEKNREINDFALELNDEAVKKLKEEALKLAKEAGLDPEEVEAIFEKHKGKSLSAVAAALIKYFKEKGAEEAAERVLKLHEELQEEINKKMTKKIKELE
B18: traf2_out_10_21_631 (protein)
chain: DAARRYLERALEIAKSGEDDRSLIAALLTNAYVAIAGLVISDNAEAYKRLASEILKFLSSMSHEEVVAYLTEMVENFEEFKKEAKEKMAKVVAEVEAKKK
B19: traf2_out_20_3_2135 (protein)
chain: SELEEELEKALEEAIKLLKEAAKLADPETAKELEKLIEELKKSKELPLTDRLVKLSEIRRRVLEMAEAAKKAGKEELAAVLEEAADAINKAMNLLMKLIE

Molecular target: T1, TRAF2, Q12933
Assay: median log2 fold change of GCK-ALFA target abundance (FLAG IP / Myc IP barcode read proportion) (log2 ratio); each designed protein is fused to an ALFA-tag nanobody in HEK293 cells to bring the named protein to FLAG-tagged glucokinase (GCK); Myc marks an untargeted standard; higher = target protein stabilised (more abundant)
Settings: target protein: 3xFLAG-MCP-GCK-ALFA reporter; HEK293 landing pad (RPLP)
How it was run: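 HEK293 landing-pad cells received a recombined binder library fused to the ALFA nanobody and were induced with 2 μg mL^−1 doxycycline, then transfected with a plasmid encoding a FLAG-tagged target and a Myc-tagged standard. Lysates were collected after 48 h for anti-FLAG and anti-Myc immunoprecipitation, and the circular RNA barcodes were reverse transcribed, amplified and sequenced. Target abundance for each binder is the median log2 ratio of FLAG to Myc barcode read proportions. Barcodes had to reach a proportion of at least 10^−7 in both replicates, each binder needed at least 3 barcodes per replicate, a pseudocount of 10^−6 was applied, and the two replicates were pooled.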

Row | Binder | median log2 fold change
1 | B1 | 0.274
2 | B2 | -0.0878
3 | B3 | 0.315
4 | B4 | -0.553
5 | B5 | 0.242
6 | B6 | 0.323
7 | B7 | 0.474
8 | B8 | 0.165
9 | B9 | 0.105
10 | B10 | 0.334
11 | B11 | -0.156
12 | B12 | 0.333
13 | B13 | 0.275
14 | B14 | 0.00164
15 | B15 | 0.134
16 | B16 | 0.256
17 | B17 | 0.506
18 | B18 | 0.0798
19 | B19 | 0.115
